Source: PubChem BioAssay AID504374 (National Center for Advancing Translational Sciences (NCATS), 2011)
About 100 (6.7%) of roughly 1,500 compounds were called active. About 7% were inconclusive and are not listed. Calls follow the shape of the dose curve; as a rule, active = well fitted inhibition curve with a large enough effect; inconclusive = small, poorly fitted or top-dose-only effect, or effect the other way; inactive = flat fitted curve, though single readings scatter. The list shows a part of the results.

The molecules below were run against Runt-related transcription factor 1 (Homo sapiens) + Core-binding factor subunit beta (Homo sapiens) (UniProt Q01196+Q13951) (assay: qHTS Assay for Compounds Blocking the Interaction Between CBF-beta and RUNX1 for the Treatment of Acute Myeloid Leukemia: Hit Validation). Conditions: AlphaScreen CBFb-His/RUNX1-biotin binding; series mostly up to 59.8 µM; activity, negative = inhibition: at the top concentration.
Method in brief: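 AlphaScreen proximity assay: His-tagged CBF-beta and biotinylated RUNX1 (30 nM each) preincubated 20 min, then compound 15 min, then nickel and streptavidin beads 90 min, all at room temperature; signal read at […]em 440 nm.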
% is scaled to controls: 0 for no effect and ±100 for the full control effect; potency is read from the fitted curve at half-maximal effect.
Also: nearly all actives have a fitted effect of over 60% in size.

UniProt Q01196, sequence (Q01196 whole entry, looked up): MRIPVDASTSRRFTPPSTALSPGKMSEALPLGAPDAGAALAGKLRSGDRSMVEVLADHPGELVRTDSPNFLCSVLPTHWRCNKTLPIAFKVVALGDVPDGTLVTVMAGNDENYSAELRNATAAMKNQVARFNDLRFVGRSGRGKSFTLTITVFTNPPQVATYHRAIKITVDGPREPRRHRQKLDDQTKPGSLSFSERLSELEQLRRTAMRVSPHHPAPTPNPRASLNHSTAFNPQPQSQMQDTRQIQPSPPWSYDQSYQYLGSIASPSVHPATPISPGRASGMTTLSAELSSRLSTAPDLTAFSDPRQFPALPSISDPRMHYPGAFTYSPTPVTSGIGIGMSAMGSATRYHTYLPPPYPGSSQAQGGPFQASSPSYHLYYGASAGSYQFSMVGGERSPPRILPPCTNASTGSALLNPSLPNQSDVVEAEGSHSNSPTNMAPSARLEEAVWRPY
UniProt Q01196, sequence (Q13951 whole entry, looked up): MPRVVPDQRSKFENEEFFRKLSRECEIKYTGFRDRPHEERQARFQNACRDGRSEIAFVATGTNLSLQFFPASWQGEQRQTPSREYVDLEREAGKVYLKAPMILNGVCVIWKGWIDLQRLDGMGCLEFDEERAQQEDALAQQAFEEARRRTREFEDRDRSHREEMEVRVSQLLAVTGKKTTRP

Q: Which “activity, negative = inhibition” value does the source give for CCNc1ccc([N+](=O)[O-])cc1 here?
A: inactive: 0.914%

Q: With CCN(CC(=O)Nc1ccc(C(=O)Nc2ccc(OC)cc2)cc1)Cc1nc2ccccc2c(=O)[nH]1 as the molecule, how does the “activity, negative = inhibition” value read?
A: inactive: -13.4%

Q: Cc1nn2c(NC(C)C)c3c(nc2c1-c1ccccc1)CCC3 was tested. Which “activity, negative = inhibition” value did it give?
A: inactive: 1.82%

Q: With Oc1cccc(O)c1O as the molecule, how does the Potency read?
A: active: 3.97 µM

Q: Which “activity, negative = inhibition” value does the source give for Cc1ccc2nc(-c3ccc4c(c3)OCCO4)cn2c1 here?
A: inactive: -2.93%

Q: Oc1ccc(Br)cc1/C=N/N1CCN(Cc2cccc3ccccc23)CC1 was tested. Which “activity, negative = inhibition” value did it give?
A: inactive: -4.26%

Q: How did the “activity, negative = inhibition” value turn out when Cc1c(NC(=O)Nc2c(Cl)cccc2Cl)c(=O)n(-c2ccccc2)n1C was run?
A: inactive: 5.38%

Q: Which “activity, negative = inhibition” value does the source give for Cc1ccc(CSc2nnc([C@@H]3CCCN3C(=O)OC(C)(C)C)o2)cc1 here?
A: inactive: 2.72%

Q: CCN(CC)CCCN=Cc1c(O)n(-c2ccccc2C)c(=O)c2ccccc12 was tested. Which “activity, negative = inhibition” value did it give?
A: inactive: -2.99%

Q: How did the “activity, negative = inhibition” value turn out when CCN(CC)C(=O)Oc1cc(COC)nc(-c2ccccc2)n1 was run?
A: inactive: 2.72%

Q: CCOC(=O)c1c2c([nH]c(=S)c1C#N)CCCC2 was tested. Which “activity, negative = inhibition” value did it give?
A: inactive: -3.85%

Q: Which “activity, negative = inhibition” value does the source give for CNC(=O)Nc1cc(NC(=O)NC)cc(C(F)(F)F)c1 here?
A: inactive: -3.15%

Q: With c1ccc2oc(-c3ccn[nH]3)cc2c1 as the molecule, how does the “activity, negative = inhibition” value read?
A: inactive: -8.71%

Q: Which “activity, negative = inhibition” value does the source give for Cn1ncc(Br)c1N1C(=O)CCC1=O here?
A: inactive: -2.83%

Q: How did the “activity, negative = inhibition” value turn out when CN(C)c1cc(-c2cccc([N+](=O)[O-])c2)oc(=O)c1Cl was run?
A: inactive: -5.18%

Q: Which “activity, negative = inhibition” value does the source give for CC(=O)c1sccc1NC(=O)c1ccccc1C(=O)O here?
A: inactive: -8.63%

Q: Which “activity, negative = inhibition” value does the source give for COc1ccc2[nH]c(=O)c(CN(C(=O)c3cccnc3)c3cccc(C)c3)cc2c1 here?
A: inactive: 0.652%

Q: With Cc1[nH]c2ccccc2c1C(=O)CSC(=S)N1CCN(C)CC1 as the molecule, how does the “activity, negative = inhibition” value read?
A: inactive: -7.37%

Q: CCSc1nc(C)c(C)c(=O)[nH]1 was tested. Which “activity, negative = inhibition” value did it give?
A: inactive: -9.91%

Q: With C(=C\c1nccc2c1[nH]c1ccccc12)/c1ccccc1 as the molecule, how does the “activity, negative = inhibition” value read?
A: inactive: 41.3%

Q: How did the “activity, negative = inhibition” value turn out when CC(C)CCNC(=O)C(=O)NCc1ccccc1 was run?
A: inactive: 15.7%

Q: Which “activity, negative = inhibition” value does the source give for O=C(Oc1ccc2c(c1)O/C(=C\c1ccncc1)C2=O)c1cccs1 here?
A: inactive: -8.69%

Q: Which “activity, negative = inhibition” value does the source give for COC(=O)c1[nH]c2cc(OC)ccc2c1N=CN(C)C here?
A: inactive: 1.84%

Q: For CCN(c1cccc2ccccc12)S(=O)(=O)c1ccc(Cl)nc1, which “activity, negative = inhibition” value is on record?
A: inactive: -11.9%

Q: For Cc1ccc(CNS(=O)(=O)c2ccc(C(F)(F)F)cc2)n1C, which “activity, negative = inhibition” value is on record?
A: inactive: -3.49%

Q: Which “activity, negative = inhibition” value does the source give for O=C(/C=C/c1ccc(O)c(O)c1)c1ccccc1O here?
A: inactive: -28.7%

Q: CCN(CC)S(=O)(=O)c1ccc(N=Nc2c(N)[nH]c(=O)[nH]c2=O)cc1 was tested. Which “activity, negative = inhibition” value did it give?
A: inactive: -3.02%

Q: For CCCCC(=O)Nc1ccc(NC(=S)NC(=O)c2ccco2)cc1OC, which “activity, negative = inhibition” value is on record?
A: inactive: -5.89%

Q: Cc1ccc(S(=O)(=O)Oc2ccccc2/C=C2/SC(=O)NC2=O)cc1 was tested. Which “activity, negative = inhibition” value did it give?
A: inactive: -5.4%

Q: Which “activity, negative = inhibition” value does the source give for CC(C)c1ccc(-c2nc3ccccc3s2)cc1 here?
A: inactive: 0.402%

Q: With C/C(=N/NC(=O)CCc1c(C)n[nH]c1C)c1cccc([N+](=O)[O-])c1 as the molecule, how does the “activity, negative = inhibition” value read?
A: inactive: -1.15%

Q: How did the “activity, negative = inhibition” value turn out when Fc1ccc(C(CCNCc2cccs2)c2ccco2)cc1 (stereo not drawn) was run?
A: inactive: 2.18%

Q: CN1CCN(c2nnc(-c3ccccc3)c(-c3ccccc3)n2)CC1 was tested. Which “activity, negative = inhibition” value did it give?
A: inactive: -0.376%
